According to the antibiotic and cytotoxicity screens of Wong et al. (2023):
The other results are listed elsewhere or left out.

Each compound was assayed on HepG2 (assay: cytotoxicity call (relative viability < 0.9)). Conditions: 10 µM.

| Structure (SMILES) | cytotoxicity call |
| --- | --- |
| C[C@@H]1CN([C@H](C)CO)C(=O)c2cc(NC(=O)Cc3ccccc3)ccc2O[C@H]1CN(C)Cc1ccc(Cl)c(Cl)c1 | inactive |
| C[C@H]1CN([C@@H](C)CO)C(=O)c2cc(C#CCN(C)C)cnc2O[C@H]1CN(C)Cc1cccc(C(=O)O)c1 | inactive |
| C[C@@H]1CN([C@@H](C)CO)C(=O)CCCn2nncc2CO[C@H]1CN(C)C(=O)Nc1cccc(Oc2ccccn2)c1 | inactive |
| C[C@@H]1CN([C@H](C)CO)S(=O)(=O)c2ccc(C#CCN(C)C)cc2O[C@H]1CN(C)Cc1cccnc1 | inactive |
| COc1ccc(S(=O)(=O)N(C)C[C@@H]2OCCCC[C@H](C)Oc3ccc(NC(=O)Nc4ccc(F)cc4)cc3C(=O)N([C@H](C)CO)C[C@H]2C)cc1 | inactive |
| COc1ccc(S(=O)(=O)N(C)C[C@@H]2Oc3c(NC(=O)Nc4c(C)noc4C)cccc3C(=O)N([C@H](C)CO)C[C@H]2C)cc1 | inactive |
| O=c1cc[nH]c(=O)[nH]1 | inactive |
| O=C(OC(C(F)(F)F)C(F)(F)F)N1CCN(Cc2ccc(C(F)(F)F)cc2N2CCCC2)CC1 | inactive |
| C[C@H](CO)N1C[C@H](C)[C@H](CN(C)S(=O)(=O)c2cccs2)Oc2c(NC(=O)Nc3cccc4ccccc34)cccc2C1=O | inactive |
| CO[C@H](CN(C)C(=O)c1ccc2c(c1)OCO2)[C@@H](C)CN([C@H](C)CO)S(=O)(=O)c1ccc(C)cc1 | inactive |
| C[C@H]1CN([C@@H](C)CO)C(=O)Cc2cc(NC(=O)Cn3cnnn3)ccc2O[C@@H]1CN(C)Cc1ccc2c(c1)OCO2 | inactive |
| CO[C@H]1CN(C)C(=O)c2cc(NS(C)(=O)=O)ccc2OC[C@H](C)N(C(=O)c2ccc3c(c2)OCO3)C[C@H]1C | inactive |
| C[C@H](CO)N1C[C@H](C)[C@H](CN(C)S(=O)(=O)c2cn(C)cn2)Oc2ccc(NC(=O)Cc3ccccc3)cc2CC1=O | inactive |
| c1ccc(Oc2cccc(Oc3ccccc3)c2)cc1 | inactive |
| C[C@H](O)C#Cc1ccc2c(c1)O[C@H](CN(C)C(=O)Nc1ccccc1)[C@@H](C)CN([C@@H](C)CO)S2(=O)=O | inactive |
| COc1ccccc1S(=O)(=O)N1C[C@H](O)COC[C@H]2O[C@@H](CC(=O)O)CC[C@@H]21 | inactive |

| Structure (SMILES) | cytotoxicity call |
| --- | --- |
| O=C(C[C@H]1CC[C@@H]2[C@H](COC[C@@H](O)CN2S(=O)(=O)c2ccc(F)cc2)O1)N[C@@H]1CCN(Cc2ccccc2)C1 | inactive |
| CO[C@@H]1CN(C)C(=O)c2cc(NS(C)(=O)=O)ccc2OC[C@H](C)N(C(=O)c2ccc3c(c2)OCO3)C[C@H]1C | inactive |
| C[C@@H]1CN([C@H](C)CO)C(=O)c2cccc(NC(=O)c3cnccn3)c2O[C@H]1CN(C)S(=O)(=O)c1ccc(Cl)cc1 | inactive |
| CCNC1CC(N)C(OC2OC(CN)=CCC2N)C(O)C1OC1OCC(C)(O)C(NC)C1O.O=S(=O)(O)O.O=S(=O)(O)O (stereo unspecified) | inactive |
| CS(=O)(=O)CCNCc1ccc(-c2ccc3ncnc(Nc4ccc(OCc5cccc(F)c5)c(Cl)c4)c3c2)o1 | active |
| C[C@@H]1CCCCO[C@H](CN(C)C(=O)C2CCCCC2)[C@H](C)CN([C@@H](C)CO)C(=O)c2cc(NS(=O)(=O)c3ccc(F)cc3)ccc2O1 | inactive |
| O=C(C[C@@H]1CC[C@H]2[C@@H](COC[C@@H](O)CN2C(=O)Nc2cccc(F)c2)O1)NCc1ccccc1Cl | inactive |
| Cn1ccc(=O)[nH]c1=O | inactive |
| COc1cccc(-c2ccc3c(c2)O[C@@H](CN(C)C(=O)C2CCC2)[C@@H](C)CN([C@@H](C)CO)S3(=O)=O)c1 | inactive |
| CC1=C(/C=C/C(C)=C/C=C/C(C)=C\C(=O)O)C(C)(C)CCC1 | inactive |
| C[C@@H]1CCCCO[C@@H](CN(C)Cc2ccccc2)[C@@H](C)CN([C@@H](C)CO)C(=O)c2cc(NS(=O)(=O)c3ccc(Cl)cc3)ccc2O1 | inactive |
| COC1C(=O)C2(C)C(OC)CC3OCC3(OC(C)=O)C2C(OC(=O)c2ccccc2)C2(O)CC(OC(=O)C(O)C(NC(=O)OC(C)(C)C)c3ccccc3)C(C)=C1C2(C)C (stereo unspecified) | active |
| C[C@@H]1CN([C@@H](C)CO)C(=O)c2cc(C#CC3CCCC3)cnc2O[C@H]1CN(C)C(=O)Cc1ccccn1 | inactive |
| C[C@H]1CCCCO[C@H](CN(C)C(=O)NC2CCCCC2)[C@@H](C)CN([C@@H](C)CO)C(=O)c2cc(NS(=O)(=O)c3ccc(F)cc3)ccc2O1 | inactive |
| Nc1ccc(C(F)(F)F)cc1Cl | inactive |
